Test results published in PubChem BioAssay AID504706 (National Center for Advancing Translational Sciences (NCATS), 2011).
Among all 320,000 compounds or so, about 200 (0.062%) were called active. Inconclusive means that the source gave no clear call. Such entries were picked first, then a sample of the others. Calls come from the whole dose curve; as a rule, active = well fitted activation curve with a large enough effect; inconclusive = small, poorly fitted or top-dose-only effect; inactive = no such curve, though single readings can be large or run the other way. Potencies of inconclusive entries are left out as doubtful fits.
Potency is the fitted concentration of half-maximal effect; tags give direction and shape of the fitted curve.

Test: qHTS assay for re-activators of p53 using a Luc reporter; note: nearly all actives have a fitted effect of over 45% in size; for activity change, positive = activation: % of control where 0% means no effect
Details: H1299 p53-A138V BP100-luciferase reporter, luminescence, 24 h; series mostly up to 92.2 µM; activity change, positive = activation: at the top concentration
Procedure, shortened: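 p53-null H1299 cells stably carrying temperature-sensitive p53-A138V and a BP100-luciferase reporter were pinned with compounds (4-point, 1:5 series) and held 24 hrs at 37 deg C. Luminescence was read 10 min after detection reagent.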
For `O=[N+]([O-])c1cccc(/C=N/Nc2nc(NCc3ccccc3)nc(N3CCOCC3)n2)c1`, the “activity change, positive = activation” value was inactive: 4.29%.
For `CC(=O)Nc1cccc(C(=O)OCc2ccccc2)c1`, the Potency was inconclusive [activator, partial curve, poor fit].
For `COc1cccc(NC(=O)C(C)SCc2ccccc2)c1` (stereo not drawn), the Potency was inconclusive [activator, single point].
For `CC(C)(O)C(=O)N/N=C\c1ccc(OC/C=C/c2ccccc2)cc1`, the Potency was inconclusive [activator, partial curve, poor fit].
For `N#Cc1c(NCc2ccccc2)ccnc1NCc1cccnc1`, the “activity change, positive = activation” value was inactive: -12.6%.
With `Cc1c(C(=O)N2CCN(C/C=C/c3ccccc3)CC2)oc2c(F)cccc12` the Potency was inconclusive [activator, single point].
For `O=C(Nc1ccc(Br)cn1)c1ccc(Cl)s1`, the Potency was inconclusive [activator, full curve, poor fit].
With `COC(=O)C1C(=O)c2c([nH]c(C(=O)OCC3CCCO3)c2C)CC1C` (stereo not drawn) the Potency was inconclusive [activator, partial curve, poor fit].
For `COc1cc(C2=NOC(C(=O)NCc3ccc(F)cc3)C2)cc(OC)c1OC` (stereo not drawn), the Potency was inconclusive [activator, full curve, poor fit].
With `Cc1ccccc1S(=O)(=O)Cc1ccc(C(=O)NCCc2ccccc2)o1` the Potency was inconclusive [activator, single point].
For `O=C(NNc1ccccc1)C(=O)NNS(=O)(=O)c1ccc([N+](=O)[O-])cc1`, the “activity change, positive = activation” value was inactive: -1.08%.
With `CCn1nc(C(=O)Nc2ccc(Cl)c(S(=O)(=O)N3CCOCC3)c2)c2ccccc2c1=O` the “activity change, positive = activation” value was inactive: -12%.
For `Cc1ccc(NC(=O)CCSc2ccccn2)cc1`, the Potency was inconclusive [activator, partial curve, poor fit].
With `COc1ccc(OCc2cc(C(=O)NCC3CCOCC3)no2)c(Cl)c1` the Potency was inconclusive [activator, partial curve, poor fit].
For `CC(C)c1ccc2c(c1)[C@H]1OCC[C@H]1[C@@H](c1cccs1)N2`, the Potency was inconclusive [activator, single point].
For `COc1cccc(CC(=O)OCC(=O)N(C)CC(=O)Nc2ccccc2Cl)c1`, the “activity change, positive = activation” value was inactive: 5.84%.
For `Cc1ccc(C(C)C)c(OCc2ccc(C(=O)N/N=C/c3ccc(O)c(O)c3)cc2)c1`, the “activity change, positive = activation” value was inactive: -5.47%.
For `CN1CCN(Cc2ccc(OCc3ccccc3)cc2)CC1`, the Potency was inconclusive [activator, full curve, poor fit].
In the case of `CCc1nnc(NC(=O)/C=C/c2ccc(C)o2)s1`, the Potency was inconclusive [activator, single point].
For `CC(Oc1ccccc1)C(=O)N1CCN(C(=O)C(C)Oc2ccccc2)CC1` (stereo not drawn), the “activity change, positive = activation” value was inactive: -10.1%.
For `Cc1ccc(S(=O)(=O)CCC(=O)NCCN2C(=O)S/C(=C/c3ccc(F)cc3)C2=O)cc1`, the Potency was inconclusive [activator, full curve, poor fit].
For `O=C(Nc1nc(-c2ccc3c(c2)OCO3)cs1)C1CC1`, the Potency was inconclusive [activator, full curve, poor fit].
In the case of `CCOc1ccc(-n2cnnn2)cc1S(=O)(=O)Nc1c(C)cccc1C`, the “activity change, positive = activation” value was inactive: -11.2%.
For `O=C(N/N=C/c1ccccc1)c1c(O)c2ccccc2[nH]c1=O`, the Potency was inconclusive [activator, full curve, poor fit].
In the case of `CCOC(=O)C1CCCN(c2ncnc3c2oc2ccccc23)C1` (stereo not drawn), the Potency was inconclusive [activator, partial curve, poor fit].
In the case of `COc1ccc(CCCC(=O)N/N=C/c2cccc(OC)c2O)cc1C`, the Potency was inconclusive [activator, partial curve, poor fit].
With `COC(=O)c1c(-c2cccc3ccccc23)csc1NC(=O)Cc1ccc(OC)c(OC)c1` the “activity change, positive = activation” value was inactive: 0.41%.
In the case of `N#C/C(=C\c1ccc(OCc2ccc(F)cc2)cc1)C(=O)Nc1cccc(C(=O)O)c1`, the Potency was inconclusive [activator, full curve, poor fit].
For `CCCCNC(=S)Nc1ccc(Cl)cc1`, the Potency was inconclusive [activator, single point].
With `O=C(Nc1ccc2c(c1)C(=O)OC2)c1ccc(C(F)(F)F)cc1` the “activity change, positive = activation” value was inactive: 8.07%.
In the case of `O=C(NC1CCS(=O)(=O)C1)c1ccc(S(=O)(=O)N2CCCC2)cc1` (stereo not drawn), the “activity change, positive = activation” value was inactive: 0.195%.
With `CCCC(=O)Nc1ccc(C(=O)COC(=O)C2CC2)cc1` the Potency was inconclusive [activator, full curve, poor fit].
For `CCOC(=O)c1cn(CC)c2cc(N3CCN(C)CC3)c(F)cc2c1=O`, the Potency was inconclusive [activator, single point].
With `Cc1cccc(OCC(=O)NCC(C)(C)N2CCOCC2)c1` the Potency was inconclusive [activator, single point].
For `Cc1ccc(C(=O)OCC(=O)N2C(C)CCCC2C)s1` (stereo not drawn), the Potency was inconclusive [activator, partial curve, poor fit].
For `Cc1nc2ccc(NC(=O)NCCCO)cc2s1`, the Potency was inconclusive [activator, partial curve, poor fit].
In the case of `CC1CCN(c2ncnc3c2cnn3-c2ccccc2)CC1`, the Potency was inconclusive [activator, partial curve, poor fit].
For `O=[N+]([O-])c1cc(/C=N/N2CCCCC2)ccc1Cl`, the Potency was inconclusive [activator, single point].
In the case of `CCn1c(COc2ccc(Cl)cc2)nnc1SC1CCc2ccccc2C1=O` (stereo not drawn), the “activity change, positive = activation” value was inactive: 4.4%.
In the case of `O=C(c1ccco1)N1CCN(c2ncnc3c2[nH]c2ccc(Br)cc23)CC1`, the “activity change, positive = activation” value was inactive: -13.3%.
With `O=C(NCCCN1CCOCC1)c1ccc2c(=O)n(Cc3ccc(Cl)cc3)c(=S)[nH]c2c1` the “activity change, positive = activation” value was inactive: 12.7%.
In the case of `COc1ccc(OCc2cc(C(=O)NC3CCOC(C)(C)C3)no2)c2ccccc12` (stereo not drawn), the Potency was inconclusive [activator, partial curve, poor fit].
With `COc1cccc(C=Nc2ccccc2C(=O)Nc2ccccc2)c1O` the Potency was inconclusive [activator, partial curve, poor fit].
